The values below come from the supplement of paper PMC10037445.

Test [1] deals with RAW-Dual. Put plainly: IRF Lucia reporter activity, fold change vs agonist alone; cytotoxicity flag (confluency mask): cytotoxic (confluency <70% of control); higher = enhanced IRF activity. The essentials:
(§1)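 RAW-Dual macrophages were seeded in DMEM at 50,000 cells/well in 384-well plates, given 50 nL of library stock by pin tool, and given a PRR agonist 1 h later. Plates were held at 37 °C, 5% CO2 for 20 hours, after which supernatant was read for IRF by QuantiLuc luminescence and for NF-κB by QuantiBlue absorbance at 620 nm. Reporter activity is expressed as fold change over wells that received agonist alone. A well was called cytotoxic when IncuCyte confluency fell below 70% of agonist controls in both mask sets.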

Test [2] has as its system RAW-Dual. Put plainly: IRF Lucia reporter activity, fold change vs agonist alone; higher = enhanced IRF activity. The settings on record: library stock concentration (final ~1000-fold dilution): 10 mM, agonist: MPLA (TLR4) […]. In a few lines: as §1
Test [3] deals with RAW-Dual. In words: IRF Lucia reporter activity, fold change vs agonist alone; cytotoxicity flag (confluency mask): not cytotoxic; higher = enhanced IRF activity. The essentials: as §1
Setting [4] is: agonist: 3'3'-cGAMP (STING) 10 ug/mL.
The mark [5] stands for this setting: cytotoxicity flag (confluency mask): cytotoxic (confluency <70% of control).
Where [6] appears, read: cytotoxicity flag (confluency mask): not cytotoxic.

Whole data set: some 2,900 compounds, median “IRF Lucia reporter activity, fold change vs agonist alone” near 0.9, cut for the highest 2% near 2.8. The list shows a part of the results.

As for `Cc1cc2c(F)c(Oc3ncnn4cc(OCC(C)OC(=O)C(C)N)c(C)c34)ccc2[nH]1` (stereo unspecified) (library stock concentration (final ~1000-fold dilution): 10 mM), the “IRF Lucia reporter activity” value was determined as 0.967 in the test on RAW-Dual [1] (setting [4]) and 2.13 with RAW-Dual [1] (agonist: LPS (TLR4) 0.1 ug/mL). With `Cc1cc2c(F)c(Oc3ncnn4cc(OCC(C)OC(=O)C(C)N)c(C)c34)ccc2[nH]1` (stereo unspecified), the “IRF Lucia reporter activity” value in the test on RAW-Dual [2] (setting [5]) worked out at 2.88. Regarding `Cc1ccc2c(=O)c3cccc(CC(=O)O)c3oc2c1C`, in the test on RAW-Dual [2] (setting [6]), the “IRF Lucia reporter activity” value came out at 0.965.

For the compound `Cc1ccc2c(=O)c3cccc(CC(=O)O)c3oc2c1C` (library stock concentration (final ~1000-fold dilution): 10 mM), the “IRF Lucia reporter activity” value worked out at 1.08 in the test with RAW-Dual [3] (setting [4]) and 6.08 with RAW-Dual [3] (agonist: LPS (TLR4) 0.1 ug/mL).

With `COc1ccc(CC2c3cc(OC)c(OC)cc3CC[N+]2(C)CCC(=O)OCCCCCOC(=O)CC[N+]2(C)CCc3cc(OC)c(OC)cc3C2Cc2ccc(OC)c(OC)c2)cc1OC` (stereo unspecified) (library stock concentration (final ~1000-fold dilution): 10 mM), the “IRF Lucia reporter activity” value is 0.641 in the test on RAW-Dual [3] (setting [4]) and 0.674 in the test on RAW-Dual [3] (agonist: LPS (TLR4) 0.1 ug/mL). Regarding `COc1ccc(CC2c3cc(OC)c(OC)cc3CC[N+]2(C)CCC(=O)OCCCCCOC(=O)CC[N+]2(C)CCc3cc(OC)c(OC)cc3C2Cc2ccc(OC)c(OC)c2)cc1OC` (stereo unspecified), in the test with RAW-Dual [2] (setting [6]), the “IRF Lucia reporter activity” value was 0.872. As for `CC(C(=O)O)c1ccc2c(c1)CC(=O)c1ccccc1S2` (stereo unspecified) (library stock concentration (final ~1000-fold dilution): 10 mM), the “IRF Lucia reporter activity” value was found to be 1.13 in the test on RAW-Dual [3] (setting [4]) and 1.11 with RAW-Dual [3] (agonist: LPS (TLR4) 0.1 ug/mL). Turning to `CC(C(=O)O)c1ccc2c(c1)CC(=O)c1ccccc1S2` (stereo unspecified), the “IRF Lucia reporter activity” value in the test with RAW-Dual [2] (setting [6]) was 1.19. On to `CN(CCNc1ccnc2cc(Cl)ccc12)CCNc1ccnc2cc(Cl)ccc12.Cl.Cl.Cl` (library stock concentration (final ~1000-fold dilution): 10 mM), for which the “IRF Lucia reporter activity” value was 0.512 in the test on RAW-Dual [1] (setting [4]) and 0.312 in the test on RAW-Dual [1] (agonist: LPS (TLR4) 0.1 ug/mL).

In the case of `COc1ccc2c(-c3ccc(O)c(C)c3)ccnc2c1` (library stock concentration (final ~1000-fold dilution): .1 mM), the “IRF Lucia reporter activity” value was 0.136 with RAW-Dual [3] (setting [4]) and 0.631 in the test on RAW-Dual [3] (agonist: LPS (TLR4) 0.1 ug/mL). With `COc1cc2c(cc1OC)C1Cc3ccc(OC)c(OC)c3CN1CC2.Cl` (stereo unspecified), the “IRF Lucia reporter activity” value in the test with RAW-Dual [2] (setting [6]) is 1.14.

With `COc1cc2c(cc1OC)C1Cc3ccc(OC)c(OC)c3CN1CC2.Cl` (stereo unspecified) (library stock concentration (final ~1000-fold dilution): 10 mM), the “IRF Lucia reporter activity” value in the test with RAW-Dual [3] (setting [4]) stood at 1.09; in the test on RAW-Dual [3] (agonist: LPS (TLR4) 0.1 ug/mL), 1.25. Consider `COc1cc(O)c2c(=O)cc(-c3ccc(O)cc3)oc2c1` (library stock concentration (final ~1000-fold dilution): 10 mM), for which the “IRF Lucia reporter activity” value is 0.437 in the test with RAW-Dual [3] (setting [4]) and 0.862 in the test on RAW-Dual [3] (agonist: LPS (TLR4) 0.1 ug/mL). For `CCN(CC)CCOC(=O)C(c1ccccc1)c1ccccc1.Cl` (library stock concentration (final ~1000-fold dilution): 10 mM), the entries for the “IRF Lucia reporter activity” value in the test with RAW-Dual [3] (setting [4]) and with RAW-Dual [3] (agonist: LPS (TLR4) 0.1 ug/mL) were 1.17 and 1.19, respectively. Consider `CCN(CC)CCOC(=O)C(c1ccccc1)c1ccccc1.Cl`, for which, in the test with RAW-Dual [2] (setting [6]), the “IRF Lucia reporter activity” value is 1.06. For `Cc1nc(-c2ccc(OCC(C)C)c(C#N)c2)sc1C(=O)O` (library stock concentration (final ~1000-fold dilution): 10 mM), the results for the “IRF Lucia reporter activity” value with RAW-Dual [3] (setting [4]) and in the test on RAW-Dual [3] (agonist: LPS (TLR4) 0.1 ug/mL) were 1.07 and 1.04, respectively. In the case of `Cc1nc(-c2ccc(OCC(C)C)c(C#N)c2)sc1C(=O)O`, in the test with RAW-Dual [2] (setting [6]), the “IRF Lucia reporter activity” value came to 1.08. `Cn1cc(-c2cc(Oc3cc(F)c(NC(=O)C4(C(=O)Nc5ccccc5)CC4)cc3F)ccn2)cn1` (library stock concentration (final ~1000-fold dilution): 10 mM): the “IRF Lucia reporter activity” value in the test with RAW-Dual [3] (setting [4]) stood at 0.145; in the test on RAW-Dual [3] (agonist: LPS (TLR4) 0.1 ug/mL), 0.468. In the case of `CC(C)c1ccc2c(c1)c(SC(C)(C)C)c(CC(C)(C)C(=O)O)n2Cc1ccc(Cl)cc1` (library stock concentration (final ~1000-fold dilution): 10 mM), the “IRF Lucia reporter activity” value in the test on RAW-Dual [3] (setting [4]) is 0.678; in the test on RAW-Dual [3] (agonist: LPS (TLR4) 0.1 ug/mL), 0.692. Turning to `COc1cc(N2CCC(N3CCN(C)CC3)CC2)ccc1Nc1ncnc(Nc2ccccc2S(=O)(=O)C(C)C)n1` (library stock concentration (final ~1000-fold dilution): 10 mM), the “IRF Lucia reporter activity” value with RAW-Dual [3] (setting [4]) was determined as 0.66; in the test with RAW-Dual [3] (agonist: LPS (TLR4) 0.1 ug/mL), 1.91. For the compound `Cc1nc(Nc2ncc(C(=O)Nc3c(C)cccc3Cl)s2)cc(N2CCN(CCO)CC2)n1`, the “IRF Lucia reporter activity” value in the test on RAW-Dual [2] (setting [5]) was determined as 0.628. `Cc1nc(Nc2ncc(C(=O)Nc3c(C)cccc3Cl)s2)cc(N2CCN(CCO)CC2)n1` (library stock concentration (final ~1000-fold dilution): 10 mM): the figures for the “IRF Lucia reporter activity” value in the test with RAW-Dual [1] (setting [4]) and in the test on RAW-Dual [1] (agonist: LPS (TLR4) 0.1 ug/mL) were 0.0732 and 0.688, respectively. The matching figures for `CC(C)(C)c1nc(-c2ccc(NC(=O)Nc3cccc(C(F)(F)F)c3)c3ccccc23)c2c(N)nccn12` (library stock concentration (final ~1000-fold dilution): 10 mM): 0.0132 and 0.0125. On to `CC(C(O)c1ccc(O)cc1)N1CCC(Cc2ccccc2)CC1.CC(C(O)c1ccc(O)cc1)N1CCC(Cc2ccccc2)CC1.O=C(O)C(O)C(O)C(=O)O` (stereo unspecified), for which the “IRF Lucia reporter activity” value in the test with RAW-Dual [2] (setting [6]) turned out to be 1.17. `CC(C(O)c1ccc(O)cc1)N1CCC(Cc2ccccc2)CC1.CC(C(O)c1ccc(O)cc1)N1CCC(Cc2ccccc2)CC1.O=C(O)C(O)C(O)C(=O)O` (stereo unspecified) (library stock concentration (final ~1000-fold dilution): 10 mM): the figures for the “IRF Lucia reporter activity” value in the test with RAW-Dual [3] (setting [4]) and in the test on RAW-Dual [3] (agonist: LPS (TLR4) 0.1 ug/mL) were 0.738 and 1.53, respectively.
